Measurements: ChEMBL document CHEMBL1201862, “PubChem BioAssay data set” (2004)
Structures can show the parent of a compound that is named as a salt.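 In this assay, cells in 96-well plates receive the compound at five concentrations for 48 hours. Endpoints are linearly interpolated between the surrounding concentrations. GI50: concentration for 50% inhibition of growth.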 Active and inactive are the calls of the source. Rule as the data show it: active = GI50 up to about 1.1 µM and inactive = higher. Square brackets hold non-standard residues; d marks the D form. Peptide text beside a SMILES is read from it. * marks the point of attachment. NMeAc5c = CNC1(C(=O)O)CCCC1; Boc = CC(C)(C)OC(=O)*; OBn = c1ccc(CO*)cc1

The compounds below were run on NCI-H322M (assay: growth of human tumour cells (NCI), 48 h).

Structure (SMILES)	GI50
COc1cc(C2S/C(=C/c3ccccc3)C(=O)N2c2ccc([N+](=O)[O-])cc2)cc(OC)c1OC (stereo unspecified)	inactive: > 55.8 µM
O=C(N/N=C/c1ccc([N+](=O)[O-])cc1)c1cccc2nc3ccccc3nc12	inactive: 4.84 µM
CNc1ncnc2c1cnn2CCCCO	inactive: > 100 µM
Cc1nn(C)c2c1C(=O)N(C)CC(=O)N2C	inactive: > 100 µM
O=C1Nc2ccccc2/C1=N/Nc1ncccc1[N+](=O)[O-]	inactive: 14 µM
CN(C)CCNC(=O)c1cccc2c(Nc3ccc(S(=O)(=O)N=C(N)N)cc3)c3ccccc3nc12	inactive: 22 µM
CC(=O)NC1C(OCc2ccccc2)OC(CO)C(O)C1OCC(=O)N1CCCC1C(=O)N[C@@H](CCC(=O)NCCCCNc1c2ccccc2nc2cccc([N+](=O)[O-])c12)C(N)=O (stereo partly specified)	inactive: 23.4 µM
CN(C)C(c1ccccc1)C(O)c1ccccc1 (stereo unspecified)	inactive: 54.1 µM
CCOc1ccc(NC(=O)CC#N)cc1	inactive: > 100 µM
COc1ccc2cc(C(=O)NCCCNC(=O)c3ccc4c(OC)c(OC)ccc4c3)ccc2c1OC	inactive: > 100 µM
O=C(O)CCC1CCc2cccc3occ1c23 (stereo unspecified)	inactive: > 100 µM
O=c1cc(NNCc2ccccc2)[nH]c(=O)[nH]1	inactive: > 100 µM
COc1ccccc1NC(=O)C(CC(C(=O)Nc1ccccc1OC)/C(C)=N/NC(=O)c1ccccc1O)/C(C)=N/NC(=O)c1ccccc1O (stereo unspecified)	inactive: 99.5 µM
COC(=O)C(Cc1ccccc1I)C1=CCC2(CC1)OCCO2 (stereo unspecified)	inactive: 37.2 µM
CCOP(=O)(OCC)/C(=C/n1c(=S)[nH]c2ccccc21)C(=O)OC	inactive: > 100 µM
CC1(C)OCC([C@H]2O[C@@H](CC(=S)NCCCCCCCCCCCCNC(=S)C[C@H]3O[C@@H](C4COC(C)(C)O4)[C@H]4OC(C)(C)O[C@H]43)[C@H]3OC(C)(C)O[C@H]32)O1 (stereo partly specified)	inactive: > 100 µM
CC(C)(C)OC(=O)N1C/C=C\C(=O)C2(OCCO2)c2ccccc21	inactive: 78.5 µM
[N-]=[N+]=CC(=O)c1ccccc1C#CCCc1ccccc1	inactive: 40.2 µM
Cc1cc(=O)n2nc(CSc3nnc(Sc4cc(O)ccc4O)s3)sc2n1	inactive: > 100 µM
CN1c2ccccc2C(=O)NC12CCN(CCCC(=O)c1ccc(F)cc1)CC2	inactive: > 100 µM
CCCCCCNC(=O)C1=C(C)NC(C)=C(C(=O)NCCCCCC)C1	inactive: > 100 µM
O=C1C=CC(=O)N1c1ccc2c(c1)Cc1cc(NC(=O)C(F)(F)F)ccc1-2	inactive: > 42.4 µM

Structure (SMILES)	GI50
CC(C)CC1C(=O)OC(C)(C)OC1=O	inactive: > 100 µM
CN(CC#N)C1CCCC[C@H]1O (stereo partly specified)	inactive: > 100 µM
COc1c(C(C)C)cc2c3c1OC(=O)[C@@]31CCCC(C)(C)C1CC2 (stereo partly specified)	inactive: 55.1 µM
CNCCCCN(C)/[N+]([O-])=N\O	inactive: > 100 µM
CC(C)(C)c1cc(C2NCCO2)cc(C(C)(C)C)c1O (stereo unspecified)	inactive: > 100 µM
Nc1ccc(-c2nc3cc(F)ccc3s2)cc1	inactive: 4.56 µM
CC(C)C(Cl)CCC(C)(Cl)C(=O)CBr (stereo unspecified)	inactive: 33.1 µM
COc1ccc(C2Oc3cc(OC)c(O)c(C)c3[C@H]2C)cc1 (stereo partly specified)	inactive: > 100 µM
N#CC(/C(=N/NC(=N)N)C(=O)Nc1ccccc1[N+](=O)[O-])c1nc(-c2ccc([N+](=O)[O-])cc2)cs1 (stereo unspecified)	inactive: > 100 µM
Cc1cc2nc(N3C(=O)/C(=C/Cc4ccco4)N=C3c3ccccc3)sc2cc1C	inactive: 54.2 µM
CN1CCN(C2=C(Cl)C3(OCCS3)C(F)(F)C2(F)F)CC1 (stereo unspecified)	inactive: > 100 µM
CC(C)=CCC/C(C)=C/Cc1cc(/C=C/c2cc(O)c(CC=C(C)C)c(O)c2)cc(O)c1O [MAPPAIN]	inactive: 11.2 µM
O=C1C=C(Nc2ccc(S(=O)(=O)Nc3ncccn3)cc2)c2ccccc2C1=O	inactive: 20.2 µM
CCC1OC2(C)CC(C#N)(C#N)C1(C#N)C(=N)O2 (stereo unspecified)	inactive: > 100 µM
Brc1c(C#CCC2CCCCC2)ccc(C#CCC2CCCCC2)c1Br	inactive: > 100 µM
CC(C)(O)[C@@H]1CC[C@@]2(C)CCC[C@H](O)[C@H]2C1	inactive: > 100 µM
O=C1CCCCCCCCCCC1CN1CCOCC1 (stereo unspecified)	inactive: > 100 µM
CN(C(=O)C(Cc1ccccc1)NC(=O)OC(C)(C)C)C1(C(=O)NC(Cc2ccccc2)C(=O)OCc2ccccc2)CCCC1 (stereo not drawn) (Boc-Phe-[NMeAc5c]-Phe-OBn; configuration not given here)	inactive: > 100 µM
O=c1c2ccccc2nc(-c2ccc(Br)cc2)n1NC1OC(CO)C(O)C(O)C1O (stereo unspecified)	inactive: > 100 µM
C#CCn1c(=O)c2cc(OC)c(OC)cc2n(CC#C)c1=O	inactive: > 10 µM
CCCCCCCCCCC(C)CCCCCCC(=O)OCC(COP(=O)([O-])OCC[N+](C)(C)C)OC(=O)CCCCCCC(C)CCCCCCCCCC (stereo unspecified)	inactive: > 100 µM
CN(C)c1nc2nonc2nc1Nc1ccccc1	inactive: > 100 µM

Structure (SMILES)	GI50
CC(C)c1cc2c(c(O)c1O)[C@@]1(C)CCCC(C)(C)C1=C(O)C2	inactive: 1.67 µM
CCN(CCO)CC1COc2ccccc2O1 (stereo unspecified)	inactive: > 100 µM
COC(Cc1cc(C(O)(c2ccc(C(C)(C)C)cc2)c2cc(CC(OC)(c3cc(C(OC)(c4ccc(C(C)(C)C)cc4)c4ccc(C(C)(C)C)cc4)c(C)cc3C)c3cc(C(OC)(c4ccc(C(C)(C)C)cc4)c4ccc(C(C)(C)C)cc4)c(C)cc3C)c(C)cc2C)c(C)cc1C)(c1cc(C(OC)(c2ccc(C(C)(C)C)cc2)c2ccc(C(C)(C)C)cc2)c(C)cc1C)c1cc(C(OC)(c2ccc(C(C)(C)C)cc2)c2ccc(C(C)(C)C)cc2)c(C)cc1C	inactive: > 75 µM
C[C@@H](N[C@H]1CCC[C@@H]1O)c1ccccc1.C[C@@H](N[C@H]1CCC[C@H]1O)c1ccccc1	inactive: > 100 µM
CC(=O)NCCCCN(CCCNC(C)=O)C(=O)CNS(=O)(=O)c1cccc2c(N(C)C)cccc12	inactive: > 100 µM
CC(=O)/C(=C\NC(=S)Nc1ccc(S(N)(=O)=O)cc1)C(=O)Nc1ccccc1C	inactive: 62.8 µM
O=C(O)C(O)c1ccc(F)cc1 (stereo unspecified)	inactive: > 100 µM
O=C1[C@H]2ON(c3ccccc3)C(c3ccc(Cl)cc3)[C@H]2C(=O)N1c1ccc(Cc2ccc(N3C(=O)[C@@H]4ON(c5ccccc5)C(c5ccc(Cl)cc5)[C@@H]4C3=O)cc2)cc1 (stereo partly specified)	inactive: > 100 µM
O=C1c2ccccc2C(=O)c2c1ccc(C1C(=O)c3ccccc3C1=O)c2-c1c(C2C(=O)c3ccccc3C2=O)ccc2c1C(=O)c1ccccc1C2=O	inactive: > 100 µM
N=C(CC(=O)NOC(=O)c1ccccc1)NOC(=O)c1ccccc1	inactive: 93.8 µM
O=c1[nH]nc(Cc2ccc(Cl)cc2)n1/N=C\c1ccc(/C=N/n2c(Cc3ccc(Cl)cc3)n[nH]c2=O)cc1	inactive: > 100 µM
O=C1NC(=O)c2ccccc2/C1=C/c1ccc2c(c1)OCO2	inactive: 38.7 µM
O=C(O)c1c(CC(Cc2ccccc2)C(=O)O)ccc2c1CCC2 (stereo unspecified)	inactive: > 100 µM
N#CC(NCc1cccc(CNC(C#N)c2ccccc2)c1)c1ccccc1 (stereo unspecified)	inactive: 30.7 µM
CCOC(=O)C1=C(C(=O)OCC)C2c3ccccc3C=CN2C(C(=O)OCC)=C(SC)S1 (stereo unspecified)	inactive: > 100 µM
Cn1c(=O)cc2[nH]c3ccccc3n2c1=O	inactive: > 100 µM
Cc1cc(Cl)nc2ccc(Cc3ccc4nc(Cl)cc(C)c4c3)cc12	inactive: 46.2 µM
COc1ccc(Br)c(CN2CCc3ccccc32)c1OS(=O)(=O)c1ccc(C)cc1	inactive: 56.8 µM
COc1ccc(/C=C/c2cc(=O)cc(/C=C/c3ccc(OC)c(O)c3)o2)cc1O	inactive: 2.86 µM
COc1ccc(-c2nc(-c3cc4c(ccc5ccccc54)oc3=O)cs2)cc1	inactive: 70.6 µM
CC/C(=C(\c1ccccc1)c1ccc(OCCN(C)C)cc1)c1ccccc1 [TAMOXIFEN CITRATE]	inactive: 6.31 µM
CCOC(=O)c1ccc(-c2cccs2)n1C	inactive: > 100 µM

Structure (SMILES)	GI50
CCOC(=O)[C@@H]1OC(c2ccccc2)O[C@H]1C(=O)OCC	inactive: > 100 µM
Cc1cc(C)c(N[S+]([O-])c2cccc(Cl)c2)c(C)c1 (stereo unspecified)	inactive: 69.5 µM
Cc1cc2cc3c(cc2c(-c2ccc(N)cc2)n1)OCO3	inactive: 54.6 µM
CC(=O)O[C@@]12CO[C@@H]1C[C@@H](O)[C@@]1(C)C(=O)[C@H](O)C3=C(C)[C@@H](OC(=O)[C@H](O)[C@@H](NC(=O)c4ccccc4)c4ccccc4)C[C@@](O)([C@@H](OC(=O)c4ccccc4)C12)C3(C)C (stereo partly specified)	active: 0.0588 µM
COc1cc([C@@H]2c3cc4c(cc3[C@H](OC3OC5COC(C(C)C)OC5C(O)C3O)C3COC(=O)[C@@H]32)OCO4)cc(OC)c1O (stereo partly specified)	inactive: 14.1 µM
CCOP(=O)(OCC)/C(C#N)=C/c1ccc[nH]1	inactive: 74.1 µM
c1ccc2c(c1)[nH]c1c2ncc2[nH]c3ccccc3c21	inactive: 2.52 µM
CC1O[C@@H]2CCCCC(=O)[C@]2(C)[C@H]1C (stereo partly specified)	inactive: > 100 µM
COC(=O)c1cc(C)n(CN(Cn2nc(C(=O)OC)cc2C)c2ccccc2)n1	inactive: > 100 µM
COc1ccc(/N=C2\C(=N/c3ccc(OC)cc3)N(S(=O)(=O)c3ccccc3)C(=S)N2c2ccccc2)cc1	inactive: > 100 µM
CC(O)CC(O)(C(F)(F)F)C(F)(F)F (stereo unspecified)	inactive: > 10 µM
COc1ccc(COCC[C@H](C)OC2OC(CO)C(O)C(O)C2O)cc1 (stereo partly specified)	inactive: > 100 µM
O=C1CC(C(O)(C(F)(F)F)C(F)(F)Cl)CCC1C(O)(C(F)(F)F)C(F)(F)Cl (stereo unspecified)	inactive: > 10 µM
O=C(NC1CCCCC1)NS(=O)(=O)c1ccc2c(c1)CCC2 [GLYHEXAMIDE]	inactive: > 100 µM
Fc1ccccc1C1SCc2nc3ccccc3n21 (stereo unspecified)	inactive: > 100 µM
COc1cc(/C=C(\NC(=O)c2ccccc2)c2nc3cncnc3[nH]2)cc(OC)c1OC	inactive: > 100 µM
Cc1ncc(CSc2ccccc2N)c(CO)c1O	inactive: > 100 µM
CCc1nc(N)c2nc(-c3ccc(C#N)cc3)oc2n1	inactive: > 100 µM
COc1nc(C(Cl)(Cl)Cl)c(Cl)c(OC)c1Cl [PENCLOMEDINE]	inactive: 43 µM
Oc1cc(O)cc(-c2nc3cc(F)ccc3s2)c1	inactive: 30 µM
